Enrichment ratio data for 153 variants are collected here from a collection of fitness landscapes (doi:10.1126/science.1257360).

B1: PhoQ; a variant is named by its letters at X, in order, P23837 (parent)
chain: MKKLLRLFFPLSLRVRFLLATAAVVLVLSLAYGMVALIGYSVSFDKTTFRLLRGESNLFYTLAKWENNKLHVELPENIDKQSPTMTLIYDENGQLLWAQRDVPWLMKMIQPDWLKSNGFHEIEADVNDTSLLLSGDHSIQQQLQEVREDDDDAEMTHSVAVNVYPATSRMPKLTIVVVDTIPVELKSSYMVWSWFIYVLSANLLLVIPLLWVAAWWSLRPIEALAKEVRELEEHNRELLNPATTRELTSLVRNLNRLLKSERERYDKYRTTLTDLTHSLKTPLXXLQXXLRSLRSEKMSVSDAEPVMLEQISRISQQIGYYLHRASMRGGTLLSRELHPVAPLLDNLTSALNKVYQRKGVNISLDISPEISFVGEQNDFVEVMGNVLDNACKYCLEFVEISARQTDEHLYIVVEDDGPGIPLSKREVIFDRGQRVDTLRPGQGVGLAVAREITEQYEGKIVAGESMLGGARMEVIFGRQHSAPKDE

The other results are listed elsewhere or left out.

In the experiment the parent is B1. The experiment in a line: enrichment ratio after two sorts for PhoP signalling (ratio (wild type AVST 3.29)); higher = more functional. Particulars: with PhoP (E. coli).
Take VIDR: the enrichment ratio is at most 0.25.
The value for GRAT was at most 0.25.
The value for HCHK was at most 0.25; that for IANA was at most 0.25; that for WMTG was at most 0.25.
The value for GQYK was at most 0.25; that for WSNS was at most 0.25.
With FPYK, the enrichment ratio is at most 0.25.
For the variant PNEQ, the enrichment ratio is at most 0.25.
Take GTFK: the enrichment ratio is at most 0.25.
The value for VCVL was at most 0.25.
The value for FYEF was at most 0.25.
Under IETG stands at most 0.25.
With GTDV, the enrichment ratio is at most 0.25.
Under GNMK stands at most 0.25.
With HHNI, the enrichment ratio was at most 0.25.
Under LRLH stands at most 0.25; under ACLN, 13.6.
The value for PCTI was at most 0.25; that for FVYS was at most 0.25; that for RFAE was at most 0.25.
The value for VLIE was at most 0.25; that for THND was 29.6.
Regarding WWSE, the enrichment ratio was at most 0.25.
As for YTFG, the enrichment ratio was at most 0.25.
The value for LSKG was at most 0.25; that for KWPS was at most 0.25.
The value for NHQI was at most 0.25; that for WCPW was at most 0.25; that for DNNA was at most 0.25.
In the case of GFMP, the enrichment ratio is at most 0.25.
The value for PNKY was at most 0.25; that for EPHC was at most 0.25.
Under QCPH stands at most 0.25; under SPGC, at most 0.25; under APMQ, at most 0.25.
Under LDTW stands at most 0.25; under VKDS, at most 0.25.
As to VRWF, the enrichment ratio was at most 0.25.
Regarding RYIR, the enrichment ratio is at most 0.25.
Under TWQC stands at most 0.25; under PCKY, at most 0.25.
The value for HESE was at most 0.25.
Take GKAQ: the enrichment ratio is at most 0.25.
The value for IQAM was at most 0.25; that for IRAM was at most 0.25.
Under AYNS stands at most 0.25; under RICA, at most 0.25; under AHQL, at most 0.25.
In the case of SNNP, the enrichment ratio is at most 0.25.
PYPC: the enrichment ratio was at most 0.25.
Take DVII: the enrichment ratio was at most 0.25.
Under YGGM stands at most 0.25; under SVEL, at most 0.25.
In the case of FQQG, the enrichment ratio was at most 0.25.
With EAQH, the enrichment ratio was at most 0.25.
Under ANNM stands 12.9.
Regarding ERPM, the enrichment ratio was at most 0.25.
Under LCLT stands at most 0.25; under PYMI, at most 0.25.
Under HAFL stands at most 0.25.
Consider VEIT, for which the enrichment ratio is at most 0.25.
Under IAKW stands at most 0.25.
The value for HPPL was at most 0.25; that for GNIA was at most 0.25; that for LHIL was at most 0.25.
The value for DNSN was at most 0.25.
Take IGNM: the enrichment ratio is at most 0.25.
Turning to WDWL, the enrichment ratio is at most 0.25.
Under GWLY stands at most 0.25.
Under TSIR stands at most 0.25.
The value for FDLN was at most 0.25.
On to QCSN, for which the enrichment ratio was determined as 17.6.
Under DDPI stands at most 0.25.
Regarding IFHY, the enrichment ratio is at most 0.25.
The value for WQNS was at most 0.25.
The value for QAYA was at most 0.25; that for TKNC was 8.5.
The value for IEIE was at most 0.25; that for HQQP was at most 0.25.
For YKYK, the enrichment ratio was at most 0.25.
In the case of TEWM, the enrichment ratio came out at 73.1.
As for LDEM, the enrichment ratio is at most 0.25.
For the variant MAMQ, the enrichment ratio was at most 0.25.
Under SYPW stands at most 0.25.
The value for DMDS was at most 0.25; that for FLAA was at most 0.25.
The value for WPYW was at most 0.25.
For NFDF, the enrichment ratio is at most 0.25.
The value for AVRF was at most 0.25.
The value for KMVR was at most 0.25; that for KLVT was at most 0.25.
The value for EQSQ was at most 0.25.
NDIF: the enrichment ratio was at most 0.25.
The value for NHNM was at most 0.25; that for LPEW was at most 0.25.
The value for WQLA was at most 0.25; that for HSYF was at most 0.25.
The value for LRGV was at most 0.25; that for NVWR was at most 0.25; that for QWSI was at most 0.25.
On to EPSW, for which the enrichment ratio is at most 0.25.
Take YHEK: the enrichment ratio is at most 0.25.
Under GFSP stands at most 0.25; under AHPC, at most 0.25.
The value for SQIC was 8.67; that for PDAL was at most 0.25; that for DKQK was at most 0.25.
Under NYPD stands at most 0.25; under GRLE, at most 0.25.
As to GYDM, the enrichment ratio is at most 0.25.
The value for KFSM was at most 0.25; that for WWFH was at most 0.25.
Under PCFK stands at most 0.25; under SLLW, at most 0.25; under NRFI, at most 0.25.
In the case of MIYY, the enrichment ratio is at most 0.25.
The value for AFII was at most 0.25; that for DKCH was at most 0.25; that for HFQN was at most 0.25.
Under HQPI stands at most 0.25; under NPGC, at most 0.25.
Under FSLC stands 12.4; under FCDT, at most 0.25.
On to YWYF, for which the enrichment ratio was at most 0.25.
The value for WTLT was at most 0.25; that for KHTS was at most 0.25; that for SSVK was at most 0.25.
Under SGDR stands at most 0.25.
Under NSAH stands at most 0.25; under LWNM, at most 0.25.
Consider TRVF, for which the enrichment ratio is at most 0.25.
The value for HRGL was at most 0.25; that for TKYK was at most 0.25.
The value for WEDW was at most 0.25.
The value for TACG was 8.73; that for VKWA was at most 0.25.
In the case of SGQM, the enrichment ratio came to 14.7.
Take GKQC: the enrichment ratio is at most 0.25.
The value for DHSL was at most 0.25; that for PHWA was at most 0.25.
With ITVV, the enrichment ratio is at most 0.25.
Take PCFL: the enrichment ratio was at most 0.25.
Under KEHV stands at most 0.25; under MKAA, at most 0.25; under THMG, 2.89.
Turning to RDVA, the enrichment ratio was at most 0.25.
The value for FMLS was at most 0.25; that for LSDI was at most 0.25.
Under IQAW stands at most 0.25.
The value for MFAW was at most 0.25; that for DKKR was at most 0.25; that for FSPE was at most 0.25.
